{"source": "PubChem BioAssay AID504332", "about": "(National Center for Advancing Translational Sciences (NCATS), 2011)", "note": "The campaign covered roughly 350,000 compounds. About 31,000 (8.9%) were called active. Inconclusive means that the source gave no clear call. Such entries were picked first, then a sample of the others. Calls come from the whole dose curve; as a rule, active = well fitted inhibition curve with a large enough effect; inconclusive = small, poorly fitted or top-dose-only effect; inactive = no such curve, though single readings can be large or run the other way. Potencies of inconclusive entries are doubtful fits and often do not repeat. More than one record can exist for a structure, and the calls need not agree. % is set by controls: 0 for no effect and ±100 for the full control effect; potency is the fitted concentration of half-maximal effect; tags give direction and shape of the fitted curve."}
{"target": "Histone-lysine N-methyltransferase EHMT2 (Homo sapiens) (UniProt Q96KQ7)", "sequence (Q96KQ7 whole entry, looked up)": "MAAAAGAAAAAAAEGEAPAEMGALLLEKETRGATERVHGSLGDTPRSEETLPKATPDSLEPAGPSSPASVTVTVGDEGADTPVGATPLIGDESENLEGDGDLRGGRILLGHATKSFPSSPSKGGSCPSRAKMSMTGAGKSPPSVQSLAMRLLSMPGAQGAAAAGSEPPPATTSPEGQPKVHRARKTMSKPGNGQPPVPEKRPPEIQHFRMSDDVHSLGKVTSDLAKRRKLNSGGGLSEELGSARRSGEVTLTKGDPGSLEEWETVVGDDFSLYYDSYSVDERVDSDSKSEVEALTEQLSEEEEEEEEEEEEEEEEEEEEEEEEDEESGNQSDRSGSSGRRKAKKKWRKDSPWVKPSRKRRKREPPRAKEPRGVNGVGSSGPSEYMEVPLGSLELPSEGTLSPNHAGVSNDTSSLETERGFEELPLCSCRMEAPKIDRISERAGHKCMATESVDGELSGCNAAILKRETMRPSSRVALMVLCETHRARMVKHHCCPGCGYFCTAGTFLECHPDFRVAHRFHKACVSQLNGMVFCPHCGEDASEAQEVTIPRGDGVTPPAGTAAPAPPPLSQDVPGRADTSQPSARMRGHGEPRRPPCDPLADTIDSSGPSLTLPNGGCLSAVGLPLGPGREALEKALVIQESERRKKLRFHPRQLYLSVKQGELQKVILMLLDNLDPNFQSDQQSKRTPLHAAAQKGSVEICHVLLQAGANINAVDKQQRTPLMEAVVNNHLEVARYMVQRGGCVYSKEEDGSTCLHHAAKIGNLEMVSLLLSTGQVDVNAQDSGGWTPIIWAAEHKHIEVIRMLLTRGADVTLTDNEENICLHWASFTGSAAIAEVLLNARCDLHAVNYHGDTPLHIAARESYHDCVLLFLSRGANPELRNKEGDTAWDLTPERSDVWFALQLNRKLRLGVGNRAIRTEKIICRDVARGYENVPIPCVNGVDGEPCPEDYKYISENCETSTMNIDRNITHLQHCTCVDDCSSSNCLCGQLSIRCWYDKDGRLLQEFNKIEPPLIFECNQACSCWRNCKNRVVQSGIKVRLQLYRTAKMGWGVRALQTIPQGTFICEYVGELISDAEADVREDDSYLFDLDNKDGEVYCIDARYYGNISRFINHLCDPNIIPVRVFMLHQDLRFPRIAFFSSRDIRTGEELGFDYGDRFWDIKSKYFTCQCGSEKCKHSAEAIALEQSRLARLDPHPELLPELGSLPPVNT", "assay": "qHTS Assay for Inhibitors of Histone Lysine Methyltransferase G9a; note: nearly all actives have a fitted effect of over 75% in size", "settings": "G9a H3K9 monomethylation, AlphaScreen, 2 h; activity, negative = inhibition: at 59 µM (top of the series) unless noted", "how_it_was_run": "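AlphaScreen detection with an anti-monomethyl H3K9 antibody quantified product after a 2 h room-temperature reaction containing 500 nM biotinylated H3K9 peptide, 20 µM SAM and 20 nM enzyme, which had been preincubated 15 min with compound.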"}
{"compound": "Cc1ccc2oc(-c3cccc(NC(=O)c4cccc5c(Br)cccc45)c3)nc2c1", "activity, negative = inhibition": "inactive: -47.5%"}
{"compound": "O=C(CSc1ncccc1C(=O)O)c1cccc(C(F)(F)F)c1", "Potency": "inconclusive: 44.7 µM [inhibitor, partial curve, poor fit]"}
{"compound": "CN(C)c1ccc(/C=C(/C#N)C(=O)NCc2ccccc2)o1", "Potency": "active: 3.55 µM"}
{"compound": "CN1CCN(CC(=O)O)CC1", "Potency": "active: 35.5 µM"}
{"compound": "COC(=O)c1ccc2c(=O)sc(N3CCC(C(N)=O)CC3)nc2c1", "activity, negative = inhibition": "inconclusive: -57.3% [inhibitor]"}
{"compound": "COc1ccc(NC(=O)CC2Nc3cccc4cccc(c34)NC2=O)cc1", "note": "(configuration not stated)", "Potency": "active: 25.1 µM"}
{"compound": "COc1ccccc1N1CCN(S(=O)(=O)c2ccc(F)cc2)CC1", "Potency": "inconclusive: 70.8 µM [inhibitor, single point]"}
{"compound": "CC(=O)Nc1ccc2nc(CN3CCC(CO)(CCc4ccccc4)CC3)ccc2c1", "activity, negative = inhibition": "inactive: -39.1% [at 102 µM]"}
{"compound": "Cc1cc(C)c2nc(N3CCCC(C(=O)N4CCC(C(N)=O)CC4)C3)sc2c1", "note": "(configuration not stated)", "Potency": "inconclusive: 100 µM [inhibitor, single point]"}
{"compound": "CCOC(=O)N1CCN(S(=O)(=O)c2ccc(C(=O)Nc3nc4ccccc4s3)cc2)CC1", "Potency": "active: 50.1 µM"}
{"compound": "CCCCN(CC)C(=O)c1c[nH]c2ccc(S(=O)(=O)Nc3cccc(OC)c3)cc2c1=O", "activity, negative = inhibition": "inactive: -23.6%"}
{"compound": "O=C(CN1CCCCCCC1)N/N=C/c1ccc([N+](=O)[O-])o1", "Potency": "active: 31.6 µM"}
{"compound": "O=C(O)c1cccc(C(=O)c2cccc(C(=O)O)c2)c1", "Potency": "inconclusive: 35.5 µM [inhibitor, partial curve, poor fit]"}
{"compound": "CC(=O)Oc1ccc(N(C(C)=O)S(=O)(=O)c2cccs2)c2ccccc12", "Potency": "active: 12.6 µM"}
{"compound": "CCOC(=O)Cn1c2[n+](c3ccccc31)CC(O)CS2", "note": "(configuration not stated)", "Potency": "inconclusive: 2.82 µM [inhibitor, partial curve, poor fit]"}
{"compound": "O=C(CCS(=O)(=O)c1ccc(Cl)cc1)Nc1nnc(-c2cccs2)o1", "activity, negative = inhibition": "inactive: -1.82% [at 102 µM]"}
{"compound": "O=C(CSc1cccc[n+]1[O-])Nc1c(Br)cc([N+](=O)[O-])cc1Br", "Potency": "inconclusive: 50.1 µM [inhibitor, partial curve, poor fit]"}
{"compound": "COc1ccccc1/C=C1\\SC(=S)N(CCC(=O)NCCCn2ccnc2)C1=O", "Potency": "inconclusive: 79.4 µM [inhibitor, single point]"}
{"compound": "COC(=O)c1c(C)sc(-c2c(-c3ccc(F)cc3)[nH]c3[nH]c(=O)[nH]c(=O)c23)c1O", "Potency": "inconclusive: 7.94 µM [inhibitor, partial curve]"}
{"compound": "COc1ccc(CN=C2NN=C(c3ccc(Cl)cc3)CS2)cc1", "Potency": "inconclusive: 39.8 µM [inhibitor, partial curve, poor fit]"}
{"compound": "c1cncc(Nc2nc(-c3ccncc3)cs2)c1", "activity, negative = inhibition": "inactive: 6.7%"}
{"compound": "O=C(Oc1ccc(-c2cnc3ccccc3n2)cc1)c1ccc(Br)o1", "Potency": "inconclusive: 89.1 µM [inhibitor, single point]"}
{"compound": "S=C1NC2=C(C(c3ccc(Br)cc3)N1)N1CCC2CC1", "note": "(configuration not stated)", "Potency": "inconclusive: 89.1 µM [inhibitor, single point]"}
{"compound": "COc1cc(/C=C/C(=O)OCC(=O)Nc2cc(C(F)(F)F)ccc2N2CCOCC2)ccc1O", "Potency": "inconclusive: 2.24 µM [inhibitor, partial curve, poor fit]"}
{"compound": "CCCc1nn2c(=O)cc(COC(=O)c3ccccc3NC(=O)C3CCCCC3)nc2s1", "Potency": "inconclusive: 31.6 µM [inhibitor, single point]"}
{"compound": "O=C(O)CCC(NS(=O)(=O)c1ccc(N2CCCC2=O)cc1)C(=O)O", "note": "(configuration not stated)", "Potency": "inconclusive: 1.41 µM [inhibitor, full curve]"}
{"compound": "Cc1ccsc1/C=N/Nc1ccc(C(=O)O)cc1", "activity, negative = inhibition": "inactive: -50.6% [at 102 µM]"}
{"compound": "CCOc1ccc(C(c2c(NC(=O)c3ccccc3)sc(C)c2C)N2CCN(CCO)CC2)cc1", "note": "(configuration not stated)", "Potency": "inconclusive: 39.8 µM [inhibitor, single point]"}
{"compound": "COc1ccc(S(N)(=O)=O)cc1C(=O)NCCCN1CCN(c2ccc(C)cc2)CC1", "Potency": "inconclusive: 8.91 µM [inhibitor, single point]"}
{"compound": "Cc1ccc(C)c(NC(=S)NC(NC(=O)Cc2ccccc2)C(Cl)(Cl)Cl)c1", "note": "(configuration not stated)", "activity, negative = inhibition": "inactive: -43.7% [at 12.7 µM]"}
{"compound": "N#CCCN(C(=O)COC(=O)C12CC3CC(CC(O)(C3)C1)C2)c1ccc(F)cc1", "Potency": "active: 1.41 µM"}
{"compound": "C/C(=N\\NC(=S)NCc1ccccc1)c1ccccc1F", "Potency": "inconclusive: 50.1 µM [inhibitor, partial curve]"}
{"compound": "Cc1nc(NC(=O)C(Cl)Cl)sc1C(=O)N(C)C", "Potency": "inconclusive: 35.5 µM [inhibitor, single point]"}
{"compound": "N#Cc1ccc(OCC(=O)Nc2ccc(N3CCCC3)cc2)cc1", "Potency": "inconclusive: 2.24 µM [inhibitor, partial curve, poor fit]"}
{"compound": "COc1ccccc1Cn1c(=O)c2ccccc2n2c(Sc3ncnc4sccc34)nnc12", "Potency": "inconclusive: 8.91 µM [inhibitor, partial curve, poor fit]"}
{"compound": "Cc1c(Cl)c([N+](=O)[O-])nn1CC(=O)N1CCN(Cc2ccccc2)CC1", "Potency": "inconclusive: 89.1 µM [inhibitor, single point]"}
{"compound": "COc1ccc(C)cc1S(=O)(=O)N(CC(=O)Nc1cccc([N+](=O)[O-])c1)c1ccc(C)cc1", "Potency": "inconclusive: 39.8 µM [inhibitor, single point]"}
{"compound": "O=C(Nc1nnc(SCC(=O)N2CCOCC2)s1)C1CC(=O)N(c2ccc(F)cc2)C1", "note": "(configuration not stated)", "activity, negative = inhibition": "inactive: 19.3% [at 12.7 µM]"}
{"compound": "O=C(c1ccc2ccccc2n1)N1CCN(c2ccccc2Cl)CC1", "Potency": "active: 44.7 µM"}
{"compound": "O=C(OCN1C(=O)c2ccccc2C1=O)c1cc(S(=O)(=O)N2CCOCC2)ccc1F", "activity, negative = inhibition": "inactive: -41.7% [at 102 µM]"}
{"compound": "CCOc1cccc(CC(=O)N2CCc3c([nH]c4ccccc34)C2c2ccc(OC)cc2)c1OCC", "note": "(configuration not stated)", "Potency": "inconclusive: 39.8 µM [inhibitor, partial curve, poor fit]"}
{"compound": "CCCCn1c(N)c(N(CC(C)C)C(=O)CSC(C)C(=O)Nc2cc(C)on2)c(=O)[nH]c1=O", "note": "(configuration not stated)", "Potency": "active: 56.2 µM"}
{"compound": "Cc1cccc(OCCC(=O)OCc2csc(CC(=O)Nc3ccccc3C)n2)c1", "activity, negative = inhibition": "inactive: -6.68% [at 12.7 µM]"}
{"compound": "COc1ccccc1-c1noc(CCC(=O)Nc2cccc(C)c2)n1", "Potency": "active: 35.5 µM"}
{"compound": "CC1(C)CC(=O)C2=C(C1)Nc1[nH]c(=S)[nH]c(=O)c1C2c1ccccc1", "note": "(configuration not stated)", "Potency": "active: 11.2 µM"}
{"compound": "NC(=O)C1=C[C@@H](c2ccc(C(F)(F)F)cc2)C[C@@H](OCCCCO)O1", "activity, negative = inhibition": "inconclusive: -98.5% [inhibitor]"}
{"compound": "Cc1nn(C)c2c1c(-c1ccccc1)cc(=O)n2Cc1c(F)cccc1Cl", "activity, negative = inhibition": "inactive: 23.2%"}
{"compound": "CCCC(=O)N(CCN1CCOCC1)c1nc2c(OC)ccc(OC)c2s1", "Potency": "inconclusive: 79.4 µM [inhibitor, single point]"}
{"compound": "CCn1c(=NC(=O)c2ccc(N3C(=O)CCC3=O)cc2)sc2c(OC)ccc(OC)c21", "Potency": "inconclusive: 79.4 µM [inhibitor, single point]"}
{"compound": "CCN(CC)c1ccc(NC(=O)CN2C(=O)CC(C)(C)S(=O)(=O)c3ccccc32)c(C)c1", "Potency": "active: 8.91 µM"}
{"compound": "O=c1cc2oc3cc(O)c(O)cc3c(-c3ccccc3[N+](=O)[O-])c-2cc1O", "Potency": "active: 1.41 µM"}
{"compound": "CN1CCN(c2ccc(NC(=O)c3ccc4c(c3)[nH]c(=O)n4Cc3ccc(F)cc3)cc2)CC1", "Potency": "inconclusive: 12.6 µM [inhibitor, partial curve, poor fit]"}
{"compound": "Nc1ccccc1-c1nnn(CC(=O)Nc2ccc3c(c2)OCCO3)n1", "Potency": "inconclusive: 89.1 µM [inhibitor, single point]"}
{"compound": "COc1cc(C2C(C(=O)Nc3ccc(C)cc3C)=C(C)Nc3nc(SCc4ccccc4)nn32)cc(OC)c1OC", "note": "(configuration not stated)", "Potency": "inconclusive: 39.8 µM [inhibitor, partial curve, poor fit]"}
{"compound": "O=C(CN1CCCN(Cc2ccc(F)cc2Cl)C1=O)NC1CCCCCCC1", "Potency": "inconclusive: 89.1 µM [inhibitor, single point]"}
{"compound": "CCc1ccc(C(=O)NNc2ccc(S(N)(=O)=O)cc2)cc1", "Potency": "active: 22.4 µM"}
{"compound": "Cc1cccc(/C=C2/SC(=O)N(Cc3ccccc3Cl)C2=O)n1", "activity, negative = inhibition": "inactive: 52.4% [at 12.7 µM]"}
{"compound": "O=C(O)CCCNS(=O)(=O)c1cccc2nsnc12", "Potency": "inconclusive: 22.4 µM [inhibitor, single point]"}
{"compound": "COc1ccc(/C=C\\C(=O)c2c(O)ccc3c(C)cc(=O)oc23)cc1OC", "Potency": "inconclusive: 39.8 µM [inhibitor, single point]"}
{"compound": "Cc1ccc(/C=C/C(=O)Nc2ccc(S(=O)(=O)Nc3cc(C)nc(C)n3)cc2)cc1", "Potency": "inconclusive: 89.1 µM [inhibitor, single point]"}
{"compound": "COc1ccc(-c2nn(-c3ccccc3)cc2/C=N/Nc2ccc(Cl)c(C(=O)O)c2)cc1OC", "Potency": "active: 39.8 µM"}
{"compound": "COc1ccc(CCN2C(=O)c3cccc4c(C(=O)N5CCCCC5)ccc(c34)C2=O)cc1OC", "Potency": "inconclusive: 8.91 µM [inhibitor, partial curve, poor fit]"}
{"compound": "CCN(c1ccccc1)S(=O)(=O)c1nnc(NC(=O)C(C)Oc2ccccc2)s1", "note": "(configuration not stated)", "Potency": "inconclusive: 1.78 µM [inhibitor, full curve, poor fit]"}
{"compound": "O=C1CN(C(=O)c2ccc(S(=O)(=O)N3CCCC3)cc2)C(c2ccc(F)cc2)c2cc(F)ccc2N1", "note": "(configuration not stated)", "activity, negative = inhibition": "inactive: 3.87%"}
{"compound": "CC(C)(C)OC(=O)N1CC(O)CC1C(=O)OCC(=O)c1ccc(Cl)cc1", "note": "(configuration not stated)", "Potency": "inconclusive: 56.2 µM [inhibitor, partial curve, poor fit]"}
{"compound": "Cc1cccc(-c2nnc(SCC(=O)NC3CCCCC3)o2)c1", "activity, negative = inhibition": "inactive: -4.11%"}
{"compound": "COc1ccc(/C=C/C(=O)NCCCN2CCCC2)cc1", "Potency": "inconclusive: 79.4 µM [inhibitor, single point]"}
